# In a collection of fitness landscapes (doi:10.1016/j.celrep.2020.107928):
# Whole data set: some 81,000 sequences, median “one-hybrid fitness for binding parS DNA” near -0.17, cut for the highest 2% near 0.51. Some of the results follow.
# B1: Caulobacter ParB omega fusion; a variant is named by its letters at X, in order, B8GW30 (parent)
# chain: MESVVVGEPGMSEGRRGLGRGLSALLGEVDAAPAQAPGEQLGGSREAPIEILQRNPDQPRRTFREEDLEDLSNSIREKGVLQPILVRPSPDTAGEYQIVAGERAWRAAQRAGLKTVPIMVRELDDLAVLEIGIIENVQRADLNVLEEALSYKVLMEKFERTQENIAQTIGKSXSHVANXMRLLXLPDEVQSYLVSGELTAXHARAIAAAADPVALAKQIIEGGLSVRETEALARKAPNLSAGKSKGGRPPRVKDTDTQALESDLSSVLGLDVSIDHRGSTGTLTITYATLEQLDDLCNRLTRGI
# Variants of: B1
# Experiment: one-hybrid fitness for binding parS DNA (scaled: cognate 1, non-cognate 0); higher = stronger binding
# Conditions: with parS DNA site
# Summary of the method: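 Bacterial one-hybrid selection in E. coli USO rpoZ- hisB- pyrF- with a HIS3 reporter carrying the site 19 bp from the promoter, screening Caulobacter ParB libraries with four specificity codons randomised (NNS). Cells grew 48 hours at 37°C on M9-minus-histidine plus 0.1 mM IPTG and 5 mM 3-AT. Plasmids before and after selection were Illumina-sequenced, three replicate libraries pooled, and variants under 10 reads dropped. Fitness is the log change in variant-to-wild-type read ratio, rescaled to cognate 1, non-cognate 0.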
row,Variant,one-hybrid fitness for binding parS DNA
1,PVNL,≤ 0.2
2,GERS,≤ 0.2
3,MKRT,≤ 0.2
4,AYWS,≤ 0.2
5,DFAT,≤ 0.2
6,TTHM,≤ 0.2
7,SDTV,≤ 0.2
8,YLNC,≤ 0.2
9,YVNG,≤ 0.2
10,WFQR,≤ 0.2
11,GDPY,≤ 0.2
12,WGPT,≤ 0.2
13,MEAP,≤ 0.2
14,QPRH,≤ 0.2
15,LGIR,≤ 0.2
16,VAEF,≤ 0.2
17,WTAW,≤ 0.2
18,MTYF,≤ 0.2
19,TGPV,≤ 0.2
20,RWCY,≤ 0.2
21,RQYF,0.256
22,VVHS,≤ 0.2
23,PVHC,≤ 0.2
24,PKNR,≤ 0.2

row,Variant,one-hybrid fitness for binding parS DNA
1,DNMG,≤ 0.2
2,QPMR,≤ 0.2
3,AVPN,≤ 0.2
4,WEVL,≤ 0.2
5,LKSP,≤ 0.2
6,YPPK,≤ 0.2
7,TTHG,≤ 0.2
8,IRSD,≤ 0.2
9,TPGP,≤ 0.2
10,HCAN,≤ 0.2
11,VINA,≤ 0.2
12,HTVA,≤ 0.2
13,HNTP,≤ 0.2
14,DMKI,≤ 0.2
15,TQYQ,≤ 0.2
16,NQRL,≤ 0.2
17,RIGT,0.924
18,WAST,≤ 0.2
19,PPDD,≤ 0.2
20,LPRA,≤ 0.2
21,YRAY,≤ 0.2
22,DLRH,≤ 0.2
23,ATDA,≤ 0.2
24,ERQN,≤ 0.2

row,Variant,one-hybrid fitness for binding parS DNA
1,GDNS,≤ 0.2
2,SPCM,≤ 0.2
3,RMVQ,0.234
4,GSQF,≤ 0.2
5,LSYR,≤ 0.2
6,GVHQ,0.246
7,SSYG,≤ 0.2
8,RIPA,0.29
9,QKGY,≤ 0.2
10,SGYR,≤ 0.2
11,VKPG,≤ 0.2
12,VRAC,≤ 0.2
13,HCHG,≤ 0.2
14,RFLT,0.75
15,LCFL,≤ 0.2
16,GKHT,≤ 0.2
17,FVKR,≤ 0.2
18,SNMN,≤ 0.2
19,AMQC,≤ 0.2
20,RSGA,0.597
21,FATG,≤ 0.2
22,GYSK,≤ 0.2
23,FTKP,≤ 0.2
24,RYVG,0.899

row,Variant,one-hybrid fitness for binding parS DNA
1,DIPN,≤ 0.2
2,ADSS,≤ 0.2
3,HQTW,≤ 0.2
4,YVSF,≤ 0.2
5,PTRG,≤ 0.2
6,DNNR,≤ 0.2
7,GTWA,≤ 0.2
8,FGQS,≤ 0.2
9,RSPC,0.421
10,RYWL,≤ 0.2
11,GKAG,≤ 0.2
12,RCTW,0.232
13,TDKD,≤ 0.2
14,FCLG,≤ 0.2
15,RPSY,≤ 0.2
16,QSAQ,≤ 0.2
17,MSVS,≤ 0.2
18,FVGC,≤ 0.2
19,LIKY,≤ 0.2
20,RQPE,≤ 0.2
21,RWAK,≤ 0.2
22,QVRW,≤ 0.2
23,NWRI,≤ 0.2
24,QALF,≤ 0.2

row,Variant,one-hybrid fitness for binding parS DNA
1,DILG,≤ 0.2
2,YLLV,≤ 0.2
3,SEAN,≤ 0.2
4,QMIA,≤ 0.2
5,NIPD,≤ 0.2
6,MESP,≤ 0.2
7,QKYC,≤ 0.2
8,HYYK,≤ 0.2
9,MVRV,≤ 0.2
10,WDGT,≤ 0.2
11,AADT,≤ 0.2
12,KGPR,≤ 0.2
13,VHLG,≤ 0.2
14,ITRF,≤ 0.2
15,YHPG,≤ 0.2
16,ENLG,≤ 0.2
17,QAIA,≤ 0.2
18,QGST,≤ 0.2
19,CVAS,≤ 0.2
20,EALA,≤ 0.2
21,LIQD,≤ 0.2
22,DVVC,≤ 0.2
23,HVYT,≤ 0.2
24,YPPM,≤ 0.2

row,Variant,one-hybrid fitness for binding parS DNA
1,NTQF,≤ 0.2
2,MYLS,≤ 0.2
3,VAHT,≤ 0.2
4,VHWT,≤ 0.2
5,QVGG,≤ 0.2
6,THSS,≤ 0.2
7,LNLC,≤ 0.2
8,YQQT,≤ 0.2
9,MVGG,≤ 0.2
10,WPLC,≤ 0.2
11,KVTV,≤ 0.2
12,LQQT,≤ 0.2
13,KMPW,≤ 0.2
14,LSSV,≤ 0.2
15,RPGA,≤ 0.2
16,ASMY,≤ 0.2
17,VRAF,≤ 0.2
18,MMPN,≤ 0.2
19,LQCR,≤ 0.2
20,IRIG,≤ 0.2
21,RTIC,0.912
22,FALL,≤ 0.2
23,LLVN,≤ 0.2
24,LEHH,≤ 0.2

row,Variant,one-hybrid fitness for binding parS DNA
1,GRAT,≤ 0.2
2,WMFT,≤ 0.2
3,CPNE,≤ 0.2
4,DTHT,≤ 0.2
5,FNSL,≤ 0.2
6,VSTR,≤ 0.2
7,RSED,≤ 0.2
8,HTAV,≤ 0.2
9,RMNP,≤ 0.2
10,AVHK,≤ 0.2
11,RYQR,≤ 0.2
12,ETKT,≤ 0.2
13,EARR,≤ 0.2
14,RAHE,≤ 0.2
15,QAID,≤ 0.2
16,GYRH,≤ 0.2
17,QCLH,≤ 0.2
18,RVLP,≤ 0.2
19,LLQS,≤ 0.2
20,QKYR,≤ 0.2
21,QERC,≤ 0.2
22,PSSI,≤ 0.2
23,EAES,≤ 0.2
24,VDKA,≤ 0.2

row,Variant,one-hybrid fitness for binding parS DNA
1,YFFG,≤ 0.2
2,QYSR,≤ 0.2
3,YLKR,≤ 0.2
4,TIYC,≤ 0.2
5,TPNP,≤ 0.2
6,KWES,≤ 0.2
7,QIEL,≤ 0.2
8,GLFG,≤ 0.2
9,RPGQ,≤ 0.2
10,TLNS,≤ 0.2
11,YSLC,≤ 0.2
12,EALW,≤ 0.2
13,RISE,≤ 0.2
14,KHTI,≤ 0.2
15,TGSK,≤ 0.2
16,IARL,≤ 0.2
17,WYVS,≤ 0.2
18,TAYM,≤ 0.2
19,HSPV,≤ 0.2
20,QKNF,≤ 0.2
21,CSDR,≤ 0.2
22,RERT,0.216
23,FWDI,≤ 0.2
24,ANNC,≤ 0.2

row,Variant,one-hybrid fitness for binding parS DNA
1,TMSG,≤ 0.2
2,AQNP,≤ 0.2
3,EDRY,≤ 0.2
4,IEKF,≤ 0.2
5,VLMG,≤ 0.2
6,TLVA,≤ 0.2
7,KHQT,≤ 0.2
8,LLNV,≤ 0.2
9,DPNH,≤ 0.2
10,PIEL,≤ 0.2
11,KTCW,≤ 0.2
12,CQLP,≤ 0.2
13,AQPM,≤ 0.2
14,EWSR,≤ 0.2
15,ELRC,≤ 0.2
16,AKPE,≤ 0.2
17,SDYN,≤ 0.2
18,KHNR,≤ 0.2
19,ARDG,≤ 0.2
20,IMYC,≤ 0.2
21,RTVD,≤ 0.2
22,YCVL,≤ 0.2
23,DPPF,≤ 0.2
24,RGSK,≤ 0.2

row,Variant,one-hybrid fitness for binding parS DNA
1,QSER,≤ 0.2
2,STPL,≤ 0.2
3,CVYY,≤ 0.2
4,QACK,≤ 0.2
5,HINS,≤ 0.2
6,CSVN,≤ 0.2
7,LVGR,≤ 0.2
8,TSGT,≤ 0.2
9,PRAM,≤ 0.2
10,LRVS,≤ 0.2
11,KHQG,≤ 0.2
12,DWHD,≤ 0.2
13,LTQC,≤ 0.2
14,VPES,≤ 0.2
15,AGGC,≤ 0.2
16,FHEF,≤ 0.2
17,SRTV,≤ 0.2
18,PTAY,≤ 0.2
19,AHRY,≤ 0.2
20,LIAD,≤ 0.2
21,WRAT,≤ 0.2
22,QKYY,≤ 0.2
23,NCHR,≤ 0.2
24,AMPQ,≤ 0.2

row,Variant,one-hybrid fitness for binding parS DNA
1,MPVG,≤ 0.2
2,KWTY,≤ 0.2
3,NRVA,≤ 0.2
4,CAID,≤ 0.2
5,NPSA,≤ 0.2
6,DLKV,≤ 0.2
7,EEDN,≤ 0.2
8,TYAE,≤ 0.2
9,QLDG,≤ 0.2
10,FSDR,≤ 0.2
11,QPDR,≤ 0.2
12,QIIR,≤ 0.2
13,MVVQ,≤ 0.2
14,MCLT,≤ 0.2
15,KTGC,≤ 0.2
16,PHSK,≤ 0.2
17,QPTR,≤ 0.2
18,WRYF,≤ 0.2
19,AQLA,≤ 0.2
20,RQLA,0.568
21,HVYS,≤ 0.2
22,PMVG,≤ 0.2
23,FKTS,≤ 0.2
24,VCTT,≤ 0.2

row,Variant,one-hybrid fitness for binding parS DNA
1,ATII,≤ 0.2
2,REAE,≤ 0.2
3,RMAM,0.332
4,HINR,≤ 0.2
5,EPTQ,≤ 0.2
6,NFDD,≤ 0.2
7,NHPQ,≤ 0.2
8,QATA,≤ 0.2
9,QGNL,≤ 0.2
10,AFVW,≤ 0.2
11,VWGV,≤ 0.2
12,QGNQ,≤ 0.2
13,RTTV,≤ 0.2
14,TQLT,≤ 0.2
15,AKDS,≤ 0.2
16,LFKG,≤ 0.2
17,WDTK,≤ 0.2
18,VYDY,≤ 0.2
19,VQQS,≤ 0.2
20,GARM,≤ 0.2
21,SAIS,≤ 0.2
22,ASWL,≤ 0.2
23,LTQF,≤ 0.2
24,LWAT,≤ 0.2

row,Variant,one-hybrid fitness for binding parS DNA
1,RVDA,0.556
2,PYCC,≤ 0.2
3,RQKK,≤ 0.2
4,ELNR,≤ 0.2
5,RVAY,0.464
6,LVTY,≤ 0.2
7,DYQR,≤ 0.2
8,MRLA,≤ 0.2
9,MFCN,≤ 0.2
10,WFNN,≤ 0.2
11,DTAC,≤ 0.2
12,RFHK,≤ 0.2
13,RNAS,0.914
14,CGAC,≤ 0.2
15,VTGC,≤ 0.2
16,HMGG,≤ 0.2
17,QWNC,≤ 0.2
18,KRDS,≤ 0.2
